Results published in publication PMC12820563.
The list shows a part of the results. The list includes weakly bound sequences.

Molecular target: T1, MBP-FoxP3dN (UniProt Q99JB6)
T1 sequence: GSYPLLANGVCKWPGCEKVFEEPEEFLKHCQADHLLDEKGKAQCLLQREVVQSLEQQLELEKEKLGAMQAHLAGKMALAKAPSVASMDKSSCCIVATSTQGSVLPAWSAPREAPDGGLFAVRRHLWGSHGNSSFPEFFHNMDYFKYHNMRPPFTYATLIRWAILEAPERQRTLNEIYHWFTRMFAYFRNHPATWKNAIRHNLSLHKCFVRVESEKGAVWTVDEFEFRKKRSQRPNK
Test: PD-seq (MBP pull-down with sequencing)
Settings: 20 mM Tris-HCl pH 7.5, 100 mM NaCl, 1.5 mM MgCl2, 0.4 uM protein, 0.1 uM dsDNA library, 30 min, room temperature, amylose pull-down; high values mean tight binding; double strand, one strand shown

Sequence	binding signal (RPM ratio (pull-down/input))
GATGATTGTTCTCCCAGCTGATGAATTTCTCCACTCGAGTAAACAAATTTTCCTAATCTTTCTGTTCAAGCGCCATCTAC	0.272
GATGATTGTTCTCCCAGCTGATGAATTCCCTGGCTCGAGTAAACAAATTTTCCTAATCTTTCTGTTCAAGCGCCATCTAC	0.215
GATGATTGTTCTCCCAGCTGATGAATTCCTTAACTCGAGTAAACAAATTTTCCTAATCTTTCTGTTCAAGCGCCATCTAC	0.222
GATGATTGTTCTCCCAGCTGATGAATTGGAACAATCGAGTAAACAAATTTTCCTAATCTTTCTGTTCAAGCGCCATCTAC	0.385
GATGATTGTTCTCCCAGCTGATGAATTCCGCAGTTCGAGTAAACAAATTTTCCTAATCTTTCTGTTCAAGCGCCATCTAC	1.27
GATGATTGTTCTCCCAGCTGATGAATTCTCTAAATCGAGTAAACAAATTTTCCTAATCTTTCTGTTCAAGCGCCATCTAC	0.219
GATGATTGTTCTCCCAGCTGATGAATTGAGTCGGTCGAGTAAACAAATTTTCCTAATCTTTCTGTTCAAGCGCCATCTAC	0.295
GATGATTGTTCTCCCAGCTGATGAATTCCCACAGTCGAGTAAACAAATTTTCCTAATCTTTCTGTTCAAGCGCCATCTAC	0.243
GATGATTGTTCTCCCAGCTGATGAATTTAACCCATCGAGTAAACAAATTTTCCTAATCTTTCTGTTCAAGCGCCATCTAC	0.3
GATGATTGTTCTCCCAGCTGATGAATTTTAAATCTCGAGTAAACAAATTTTCCTAATCTTTCTGTTCAAGCGCCATCTAC	0.301
GATGATTGTTCTCCCAGCTGATGAATTGGGCTTATCGAGTAAACAAATTTTCCTAATCTTTCTGTTCAAGCGCCATCTAC	1.04
GATGATTGTTCTCCCAGCTGATGAATTAGATGTTTCGAGTAAACAAATTTTCCTAATCTTTCTGTTCAAGCGCCATCTAC	2.73
GATGATTGTTCTCCCAGCTGATGAATTGAGTATATCGAGTAAACAAATTTTCCTAATCTTTCTGTTCAAGCGCCATCTAC	1.7
GATGATTGTTCTCCCAGCTGATGAATTCAATGCATCGAGTAAACAAATTTTCCTAATCTTTCTGTTCAAGCGCCATCTAC	1.48
GATGATTGTTCTCCCAGCTGATGAATTAAAAGCGTCGAGTAAACAAATTTTCCTAATCTTTCTGTTCAAGCGCCATCTAC	0.552
GATGATTGTTCTCCCAGCTGATGAATTGGCTCGCTCGAGTAAACAAATTTTCCTAATCTTTCTGTTCAAGCGCCATCTAC	0.261

Sequence	binding signal (RPM ratio (pull-down/input))
GATGATTGTTCTCCCAGCTGATGAATTGGTCATCTCGAGTAAACAAATTTTCCTAATCTTTCTGTTCAAGCGCCATCTAC	0.89
GATGATTGTTCTCCCAGCTGATGAATTCGTTACTTCGAGTAAACAAATTTTCCTAATCTTTCTGTTCAAGCGCCATCTAC	0.718
GATGATTGTTCTCCCAGCTGATGAATTGAAATAGTCGAGTAAACAAATTTTCCTAATCTTTCTGTTCAAGCGCCATCTAC	0.308
GATGATTGTTCTCCCAGCTGATGAATTCTTAATCTCGAGTAAACAAATTTTCCTAATCTTTCTGTTCAAGCGCCATCTAC	0.28
GATGATTGTTCTCCCAGCTGATGAATTCAACGATTCGAGTAAACAAATTTTCCTAATCTTTCTGTTCAAGCGCCATCTAC	0.338
GATGATTGTTCTCCCAGCTGATGAATTCCAGGGTTCGAGTAAACAAATTTTCCTAATCTTTCTGTTCAAGCGCCATCTAC	0.235
GATGATTGTTCTCCCAGCTGATGAATTCCTCGAATCGAGTAAACAAATTTTCCTAATCTTTCTGTTCAAGCGCCATCTAC	0.197
GATGATTGTTCTCCCAGCTGATGAATTATCACGATCGAGTAAACAAATTTTCCTAATCTTTCTGTTCAAGCGCCATCTAC	0.291
GATGATTGTTCTCCCAGCTGATGAATTTCTGTACTCGAGTAAACAAATTTTCCTAATCTTTCTGTTCAAGCGCCATCTAC	0.473
GATGATTGTTCTCCCAGCTGATGAATTCCAAATTTCGAGTAAACAAATTTTCCTAATCTTTCTGTTCAAGCGCCATCTAC	0.283
GATGATTGTTCTCCCAGCTGATGAATTGGGCAAGTCGAGTAAACAAATTTTCCTAATCTTTCTGTTCAAGCGCCATCTAC	1.04
GATGATTGTTCTCCCAGCTGATGAATTATGGTAGTCGAGTAAACAAATTTTCCTAATCTTTCTGTTCAAGCGCCATCTAC	0.703
GATGATTGTTCTCCCAGCTGATGAATTTACCAGGTCGAGTAAACAAATTTTCCTAATCTTTCTGTTCAAGCGCCATCTAC	0.315
GATGATTGTTCTCCCAGCTGATGAATTCTGTCCTTCGAGTAAACAAATTTTCCTAATCTTTCTGTTCAAGCGCCATCTAC	0.999
GATGATTGTTCTCCCAGCTGATGAATTTAGTAGATCGAGTAAACAAATTTTCCTAATCTTTCTGTTCAAGCGCCATCTAC	0.483
GATGATTGTTCTCCCAGCTGATGAATTGCCGAGATCGAGTAAACAAATTTTCCTAATCTTTCTGTTCAAGCGCCATCTAC	0.367
